This is one part of the list. Binding of human transcription factors and regulators to the viral nucleoprotein by AlphaScreen, crude cell-free proteins, amounts not normalised, one pass. Fold of the Venus control; higher = more signal. No active / inactive call. Single-pass screen; sequences are the whole Swiss-Prot entries looked up by name.
B1: ZNF250, P15622 (protein)
chain: MAAARLLPVPAGPQPLSFQAKLTFEDVAVLLSQDEWDRLCPAQRGLYRNVMMETYGNVVSLGLPGSKPDIISQLERGEDPWVLDRKGAKKSQGLWSDYSDNLKYDHTTACTQQDSLSCPWECETKGESQNTDLSPKPLISEQTVILGKTPLGRIDQENNETKQSFCLSPNSVDHREVQVLSQSMPLTPHQAVPSGERPYMCVECGKCFGRSSHLLQHQRIHTGEKPYVCSVCGKAFSQSSVLSKHRRIHTGEKPYECNECGKAFRVSSDLAQHHKIHTGEKPHECLECRKAFTQLSHLIQHQRIHTGERPYVCPLCGKAFNHSTVLRSHQRVHTGEKPHRCNECGKTFSVKRTLLQHQRIHTGEKPYTCSECGKAFSDRSVLIQHHNVHTGEKPYECSECGKTFSHRSTLMNHERIHTEEKPYACYECGKAFVQHSHLIQHQRVHTGEKPYVCGECGHAFSARRSLIQHERIHTGEKPFQCTECGKAFSLKATLIVHLRTHTGEKPYECNSCGKAFSQYSVLIQHQRIHTGEKPYECGECGRAFNQHGHLIQHQKVHRKL
B2: ZBTB16, Q05516 (protein)
chain: MDLTKMGMIQLQNPSHPTGLLCKANQMRLAGTLCDVVIMVDSQEFHAHRTVLACTSKMFEILFHRNSQHYTLDFLSPKTFQQILEYAYTATLQAKAEDLDDLLYAAEILEIEYLEEQCLKMLETIQASDDNDTEATMADGGAEEEEDRKARYLKNIFISKHSSEESGYASVAGQSLPGPMVDQSPSVSTSFGLSAMSPTKAAVDSLMTIGQSLLQGTLQPPAGPEEPTLAGGGRHPGVAEVKTEMMQVDEVPSQDSPGAAESSISGGMGDKVEERGKEGPGTPTRSSVITSARELHYGREESAEQVPPPAEAGQAPTGRPEHPAPPPEKHLGIYSVLPNHKADAVLSMPSSVTSGLHVQPALAVSMDFSTYGGLLPQGFIQRELFSKLGELAVGMKSESRTIGEQCSVCGVELPDNEAVEQHRKLHSGMKTYGCELCGKRFLDSLRLRMHLLAHSAGAKAFVCDQCGAQFSKEDALETHRQTHTGTDMAVFCLLCGKRFQAQSALQQHMEVHAGVRSYICSECNRTFPSHTALKRHLRSHTGDHPYECEFCGSCFRDESTLKSHKRIHTGEKPYECNGCGKKFSLKHQLETHYRVHTGEKPFECKLCHQRSRDYSAMIKHLRTHNGASPYQCTICTEYCPSLSSMQKHMKGHKPEEIPPDWRIEKTYLYLCYV
B3: LBX1, P52954 (protein)
chain: MTSKEDGKAAPGEERRRSPLDHLPPPANSNKPLTPFSIEDILNKPSVRRSYSLCGAAHLLAAADKHAQGGLPLAGRALLSQTSPLCALEELASKTFKGLEVSVLQAAEGRDGMTIFGQRQTPKKRRKSRTAFTNHQIYELEKRFLYQKYLSPADRDQIAQQLGLTNAQVITWFQNRRAKLKRDLEEMKADVESAKKLGPSGQMDIVALAELEQNSEATAGGGGGCGRAKSRPGSPVLPPGAPKAPGAGALQLSPASPLTDQPASSQDCSEDEEDEEIDVDD
B4: TCEAL1, Q15170 (protein)
chain: MDKPRKENEEEPQSAPKTDEERPPVEHSPEKQSPEEQSSEEQSSEEEFFPEELLPELLPEMLLSEERPPQEGLSRKDLFEGRPPMEQPPCGVGKHKLEEGSFKERLARSRPQFRGDIHGRNLSNEEMIQAADELEEMKRVRNKLMIMHWKAKRSRPYPI
B5: ELK3, P41970 (protein)
chain: MESAITLWQFLLQLLLDQKHEHLICWTSNDGEFKLLKAEEVAKLWGLRKNKTNMNYDKLSRALRYYYDKNIIKKVIGQKFVYKFVSFPEILKMDPHAVEISRESLLLQDSDCKASPEGREAHKHGLAALRSTSRNEYIHSGLYSSFTINSLQNPPDAFKAIKTEKLEEPPEDSPPVEEVRTVIRFVTNKTDKHVTRPVVSLPSTSEAAAASAFLASSVSAKISSLMLPNAASISSASPFSSRSPSLSPNSPLPSEHRSLFLEAACHDSDSLEPLNLSSGSKTKSPSLPPKAKKPKGLEISAPPLVLSGTDIGSIALNSPALPSGSLTPAFFTAQTPNGLLLTPSPLLSSIHFWSSLSPVAPLSPARLQGPSTLFQFPTLLNGHMPVPIPSLDRAASPVLLSSNSQKS
B6: SIK1, P57059 (protein)
chain: MVIMSEFSADPAGQGQGQQKPLRVGFYDIERTLGKGNFAVVKLARHRVTKTQVAIKIIDKTRLDSSNLEKIYREVQLMKLLNHPHIIKLYQVMETKDMLYIVTEFAKNGEMFDYLTSNGHLSENEARKKFWQILSAVEYCHDHHIVHRDLKTENLLLDGNMDIKLADFGFGNFYKSGEPLSTWCGSPPYAAPEVFEGKEYEGPQLDIWSLGVVLYVLVCGSLPFDGPNLPTLRQRVLEGRFRIPFFMSQDCESLIRRMLVVDPARRITIAQIRQHRWMRAEPCLPGPACPAFSAHSYTSNLGDYDEQALGIMQTLGVDRQRTVESLQNSSYNHFAAIYYLLLERLKEYRNAQCARPGPARQPRPRSSDLSGLEVPQEGLSTDPFRPALLCPQPQTLVQSVLQAEMDCELQSSLQWPLFFPVDASCSGVFRPRPVSPSSLLDTAISEEARQGPGLEEEQDTQESLPSSTGRRHTLAEVSTRLSPLTAPCIVVSPSTTASPAEGTSSDSCLTFSASKSPAGLSGTPATQGLLGACSPVRLASPFLGSQSATPVLQAQGGLGGAVLLPVSFQEGRRASDTSLTQGLKAFRQQLRKTTRTKGFLGLNKIKGLARQVCQAPASRASRGGLSPFHAPAQSPGLHGGAAGSREGWSLLEEVLEQQRLLQLQHHPAAAPGCSQAPQPAPAPFVIAPCDGPGAAPLPSTLLTSGLPLLPPPLLQTGASPVASAAQLLDTHLHIGTGPTALPAVPPPRLARLAPGCEPLGLLQGDCEMEDLMPCSLGTFVLVQ
B7: TNFRSF11A, Q9Y6Q6 (protein)
chain: MAPRARRRRPLFALLLLCALLARLQVALQIAPPCTSEKHYEHLGRCCNKCEPGKYMSSKCTTTSDSVCLPCGPDEYLDSWNEEDKCLLHKVCDTGKALVAVVAGNSTTPRRCACTAGYHWSQDCECCRRNTECAPGLGAQHPLQLNKDTVCKPCLAGYFSDAFSSTDKCRPWTNCTFLGKRVEHHGTEKSDAVCSSSLPARKPPNEPHVYLPGLIILLLFASVALVAAIIFGVCYRKKGKALTANLWHWINEACGRLSGDKESSGDSCVSTHTANFGQQGACEGVLLLTLEEKTFPEDMCYPDQGGVCQGTCVGGGPYAQGEDARMLSLVSKTEIEEDSFRQMPTEDEYMDRPSQPTDQLLFLTEPGSKSTPPFSEPLEVGENDSLSQCFTGTQSTVGSESCNCTEPLCRTDWTPMSSENYLQKEVDSGHCPHWAASPSPNWADVCTGCRNPPGEDCEPLVGSPKRGPLPQCAYGMGLPPEEEASRTEARDQPEDGADGRLPSSARAGAGSGSSPGGQSPASGNVTGNSNSTFISSGQVMNFKGDIIVVYVSQTSQEGAAAAAEPMGRPVQEETLARRDSFAGNGPRFPDPCGGPEGLREPEKASRPVQEQGGAKA
B8: ID2, Q02363 (protein)
chain: MKAFSPVRSVRKNSLSDHSLGISRSKTPVDDPMSLLYNMNDCYSKLKELVPSIPQNKKVSKMEILQHVIDYILDLQIALDSHPTIVSLHHQRPGQNQASRTPLTTLNTDISILSLQASEFPSELMSNDSKALCG
B9: ZNF516, Q92618 (protein)
chain: MDRNREAEMELRRGPSPTRAGRGHEVDGDKATCHTCCICGKSFPFQSSLSQHMRKHTGEKPYKCPYCDHRASQKGNLKIHIRSHRTGTLIQGHEPEAGEAPLGEMRASEGLDACASPTKSASACNRLLNGASQADGARVLNGASQADSGRVLLRSSKKGAEGSACAPGEAKAAVQCSFCKSQFERKKDLELHVHQAHKPFKCRLCSYATLREESLLSHIERDHITAQGPGSGEACVENGKPELSPGEFPCEVCGQAFSQTWFLKAHMKKHRGSFDHGCHICGRRFKEPWFLKNHMKAHGPKTGSKNRPKSELDPIATINNVVQEEVIVAGLSLYEVCAKCGNLFTNLDSLNAHNAIHRRVEASRTRAPAEEGAEGPSDTKQFFLQCLNLRPSAAGDSCPGTQAGRRVAELDPVNSYQAWQLATRGKVAEPAEYLKYGAWDEALAGDVAFDKDRREYVLVSQEKRKREQDAPAAQGPPRKRASGPGDPAPAGHLDPRSAARPNRRAAATTGQGKSSECFECGKIFRTYHQMVLHSRVHRRARRERDSDGDRAARARCGSLSEGDSASQPSSPGSACAAADSPGSGLADEAAEDSGEEGAPEPAPGGQPRRCCFSEEVTSTELSSGDQSHKMGDNASERDTGESKAGIAASVSILENSSRETSRRQEQHRFSMDLKMPAFHPKQEVPVPGDGVEFPSSTGAEGQTGHPAEKLSDLHNKEHSGGGKRALAPDLMPLDLSARSTRDDPSNKETASSLQAALVVHPCPYCSHKTYYPEVLWMHKRIWHRVSCNSVAPPWIQPNGYKSIRSNLVFLSRSGRTGPPPALGGKECQPLLLARFTRTQVPGGMPGSKSGSSPLGVVTKAASMPKNKESHSGGPCALWAPGPDGYRQTKPCHGQEPHGAATQGPLAKPRQEASSKPVPAPGGGGFSRSATPTPTVIARAGAQPSANSKPVEKFGVPPAGAGFAPTNKHSAPDSLKAKFSAQPQGPPPAKGEGGAPPLPPREPPSKAAQELRTLATCAAGSRGDAALQAQPGVAGAPPVLHSIKQEPVAEGHEKRLDILNIFKTYIPKDFATLYQGWGVSGPGLEHRGTLRTQARPGEFVCIECGKSFHQPGHLRAHMRAHSVVFESDGPRGSEVHTTSADAPKQGRDHSNTGTVQTVPLRKGT

The binders below were run against nucleoprotein N of Crimean-Congo hemorrhagic fever virus (assay: AlphaScreen luminescence signal relative to Venus negative control (fold); higher = stronger binding to CCHFV N).
Method: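 AlphaScreen binding of cell-free made, FLAG-GST-tagged human transcription factors and regulators (crude translation products) to biotinylated N protein; signal as fold of the FLAG-GST-Venus control. One pass.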

| Binder | AlphaScreen luminescence signal |
| --- | --- |
| B1 | 1.86 |
| B2 | 1.63 |
| B3 | 3.26 |
| B4 | 1.49 |
| B5 | 3.16 |
| B6 | 2.28 |
| B7 | 1.44 |
| B8 | 1.95 |
| B9 | 2.6 |

From the supplement of paper PMC12423691
